Assay results published in patent publication US10858425B2, “Pan-ELR+ CXC chemokine antibodies” (Eli Lilly and Company, priority 2013, dated 2020).

Assay: Physical stability evaluation, % HMW aggregate by analytical SEC
Assay type: physicochemical
Details: for % HMW (t = 1 week) / Δ % HMW (t = 1 week) / % HMW (t = 4 weeks) / Δ % HMW (t = 4 weeks): 50 mg/mL; for Δ % HMW (t = 1 week): 1 week minus initial; for Δ % HMW (t = 4 weeks): 4 weeks minus initial
From the text: Protein aggregation and self-association is an undesirable property in antibodies as it could potentially exacerbate unwanted effects, such as triggering an immune response. Thus, maintaining the antibody in a monomeric state is highly desirable. Percent high molecular weight (% HMW) aggregate is an indicator of protein aggregation and self-association. A higher % HMW aggregate indicates increased protein aggregation/self-association and increased physical instability. Physical stability of Antibody 1 and Antibody 2 are determined as follows.
Antibody is dialyzed overnight at 4° C. into 10 mM Citrate, pH 6+/−150 mM NaCl. The next morning, the samples are concentrated to 50 mg/mL, filtered through 0.2 micron filters, and then Tween-80 is added to a final concentration of 0.02%. Each sample is incubated at 25° C. for the specified times. Soluble aggregate formation is followed by analytical SEC using a TSK3000SWXL, 5 micron column with dimensions 30 cm×0.78 cm. […] Samples are applied as 1 μL injections and monitored at 280 nm to determine the increase % HMW aggregate (Table 3).
The 50 mg/mL formulations are incubated for 1 and 4 weeks at 25° C. to assess longer-term stability under stress conditions. The delta % HMW aggregate is determined by subtracting the % HMW aggregate at time zero (designated as ‘Initial’ in Table 3) from the % HMW at the 1 week or 4 week time point.

[1] = 10 mM Citrate pH7, 150 mM NaCl 25° C.
[2] = 10 mM Citrate pH7, 150 mM NaCl, 0.02% Tween-80 25° C.

B1: Antibody 2: antibody with heavy chain SEQ ID NO: 13 and light chain SEQ ID NO: 15, expressed in NSO cells (antibody)
heavy: QVQLVQSGAEVKKPGASVKVSCKASGYEFTSYWIHWVRQAPGQGLEWMGNISPNSGSANYNEKFKSRVTMTRDTSTSTVYMELSSLRSEDTAVYYCAREGPYSYYPSRQYYGSDLWGQGTLVTVSSASTKGPSVFPLAPCSRSTSESTAALGCLVKDYFPEPVTVSWNSGALTSGVHTFPAVLQSSGLYSLSSVVTVPSSSLGTKTYTCNVDHKPSNTKVDKRV[human IgG4 Fc with S228P (EU numbers) not spelt out]
light: EIVLTQSPATLSLSPGERATLSCRASQSISNNLHWYQQKPGQAPRLLIYYTSRSVSGIPARFSGSGSGTDFTLTISSLEPEDFAVYYCGQNNEWPEVFGGGTKVEIKRTVAAPSVFIFPPSDEQLKSGTASVVCLLNNFYPREAKVQWKVDNALQSGNSQESVTEQDSKDSTYSLSSTLTLSKADYEKHKVYACEVTHQGLSSPVTKSFNRGEC
- % HMW Initial (4° C.) (10 mM Citrate pH7, 150 mM NaCl, 0.02% Tween-80): 0.42%
- % HMW Initial (4° C.) (10 mM Citrate pH7, 150 mM NaCl): 0.37%
- % HMW (t = 1 week) [1]: 0.48%
- Δ % HMW (t = 1 week) [1]: 0.11%
- % HMW (t = 4 weeks) [1]: 0.59%
- Δ % HMW (t = 4 weeks) [1]: 0.22%
- % HMW (t = 1 week) [2]: 0.55%
- Δ % HMW (t = 1 week) [2]: 0.13%
- % HMW (t = 4 weeks) [2]: 0.74%
- Δ % HMW (t = 4 weeks) [2]: 0.32%
